# This is one part of the list.
# Experiments:
# Assay in all cases: glycan array binding signal (z-score within array); higher = stronger binding
# Conditions in all cases: glycan notation: IUPAC condensed, linker removed
# [1] = target: Man(a1-2)Man(a1-3)[Man(a1-2)Man(a1-6)]Man(a1-6)[Man(a1-2)Man(a1-2)Man(a1-3)]Man(b1-4)GlcNAc(b1-4)GlcNAc
# Outline: (§1)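 Negative Z-scores can be read as non-binding. The Z-score is calculated within each array and then averaged across arrays of one protein sequence at different concentrations or buffers and across linkers. Arrays, 3228 in all, were curated from the Consortium for Functional Glycomics database and kept only where the protein sequence was available.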
# [2] = target: Man(a1-2)Man(a1-3)[Man(a1-6)]Man(a1-6)[Man(a1-2)Man(a1-3)]Man(b1-4)GlcNAc(b1-4)GlcNAc
# Outline: as §1
# [3] = target: Man(a1-2)Man(a1-6)[Man(a1-3)]Man(a1-6)[Man(a1-2)Man(a1-2)Man(a1-3)]Man
# Outline: as §1
# [4] = target: Man(a1-2)Man(a1-6)[Man(a1-3)]Man(a1-6)[Man(a1-2)Man(a1-2)Man(a1-3)]Man(b1-4)GlcNAc(b1-4)GlcNAc
# Outline: as §1
# Man(a1-3)[Man(a1-6)]Man = target: Man(a1-3)[Man(a1-6)]Man
# Outline: as §1
# [5] = target: Man(a1-3)[Man(a1-6)]Man(a1-6)[Man(a1-2)Man(a1-3)]Man(b1-4)GlcNAc(b1-4)GlcNAc
# Outline: as §1
# [6] = target: Man(a1-3)[Man(a1-6)]Man(a1-6)[Man(a1-3)]Man
# Outline: as §1
# [7] = target: Man(a1-3)[Man(a1-6)]Man(a1-6)[Man(a1-3)]Man(b1-4)GlcNAc(b1-4)GlcNAc
# Outline: as §1
# [8] = target: Man(a1-3)[Man(a1-6)]Man(b1-4)GlcNAc(b1-4)GlcNAc
# Outline: as §1
# [9] = target: Man(a1-3)[Man(a1-6)]Man(b1-4)GlcNAc(b1-4)[Fuc(a1-6)]GlcNAc
# Outline: as §1
# Man(a1-6)Man = target: Man(a1-6)Man
# Outline: as §1
# Man(b1-4)GlcNAc = target: Man(b1-4)GlcNAc
# Outline: as §1
# MurNAc(b1-4)GlcNAc = target: MurNAc(b1-4)GlcNAc
# Outline: as §1
# Neu5Ac(a2-3)Gal = target: Neu5Ac(a2-3)Gal
# Outline: as §1
# [10] = target: Neu5Ac(a2-3)Gal(b1-3)GalNAc
# Outline: as §1
# [11] = target: Neu5Ac(a2-3)Gal(b1-3)GalNAc(b1-3)Gal(a1-4)Gal(b1-4)Glc
# Outline: as §1
# [12] = target: Neu5Ac(a2-3)Gal(b1-3)GalNAc(b1-4)[Neu5Ac(a2-3)]Gal(b1-4)Glc
# Outline: as §1
# [13] = target: Neu5Ac(a2-3)Gal(b1-3)GalNAc(b1-4)[Neu5Ac(a2-8)Neu5Ac(a2-3)]Gal(b1-4)Glc
# Outline: as §1
# [14] = target: Neu5Ac(a2-3)Gal(b1-3)GalNAc6S
# Outline: as §1
# [15] = target: Neu5Ac(a2-3)Gal(b1-3)GlcNAc
# Outline: as §1
# [16] = target: Neu5Ac(a2-3)Gal(b1-3)GlcNAc(b1-2)Man
# Outline: as §1
# [17] = target: Neu5Ac(a2-3)Gal(b1-3)GlcNAc(b1-2)Man(a1-3)[GlcNAc(b1-4)][Neu5Ac(a2-3)Gal(b1-3)GlcNAc(b1-2)Man(a1-6)]Man(b1-4)GlcNAc(b1-4)GlcNAc
# Outline: as §1
# [18] = target: Neu5Ac(a2-3)Gal(b1-3)GlcNAc(b1-2)Man(a1-3)[Neu5Ac(a2-3)Gal(b1-3)GlcNAc(b1-2)Man(a1-6)]Man(b1-4)GlcNAc(b1-4)GlcNAc
# Outline: as §1
# [19] = target: Neu5Ac(a2-3)Gal(b1-3)GlcNAc(b1-3)Gal(b1-3)GlcNAc
# Outline: as §1
# [20] = target: Neu5Ac(a2-3)Gal(b1-3)GlcNAc(b1-3)Gal(b1-4)GlcNAc
# Outline: as §1
# [21] = target: Neu5Ac(a2-3)Gal(b1-3)GlcNAc(b1-3)GalNAc
# Outline: as §1
# [22] = target: Neu5Ac(a2-3)Gal(b1-3)GlcNAc(b1-4)Gal(b1-4)Glc
# Outline: as §1
# [23] = target: Neu5Ac(a2-3)Gal(b1-3)GlcNAc(b1-6)GalNAc
# Outline: as §1
# [24] = target: Neu5Ac(a2-3)Gal(b1-3)GlcNAc6S
# Outline: as §1
# [25] = target: Neu5Ac(a2-3)Gal(b1-3)[Fuc(a1-4)]GlcNAc
# Outline: as §1
# [26] = target: Neu5Ac(a2-3)Gal(b1-3)[Fuc(a1-4)]GlcNAc(b1-3)Gal(b1-3)[Fuc(a1-4)]GlcNAc
# Outline: as §1
# [27] = target: Neu5Ac(a2-3)Gal(b1-3)[Fuc(a1-4)]GlcNAc(b1-3)Gal(b1-4)[Fuc(a1-3)]GlcNAc
# Outline: as §1
# [28] = target: Neu5Ac(a2-3)Gal(b1-3)[GlcNAc(b1-6)]GalNAc
# Outline: as §1
# [29] = target: Neu5Ac(a2-3)Gal(b1-3)[Neu5Ac(a2-3)Gal(b1-4)]GlcNAc
# Outline: as §1
# [30] = target: Neu5Ac(a2-3)Gal(b1-3)[Neu5Ac(a2-6)]GalNAc
# Outline: as §1
# [31] = target: Neu5Ac(a2-3)Gal(b1-3)[Neu5Ac(a2-6)]GlcNAc(b1-3)[Fuc(a1-3)[Gal(b1-4)]GlcNAc(b1-6)]Gal(b1-4)Glc
# Outline: as §1
# [32] = target: Neu5Ac(a2-3)Gal(b1-3)]Neu5Ac(a2-3)Gal(b1-4)]GlcNAc
# Outline: as §1
binder,measurement,setting,value
"Gal 4 (Mus musculus), P56470 (protein) MAYVPAPGYQPTYNPTLPYYQPIPGGLNVGMSVYIQGVASEHMKRFFVNFVVGQDPGSDVAFHFNPRFDGWDKVVFNTLQGGKWGSEERKRSMPFKKGAAFELVFIVLAEHYKVVVNGNPFYEYGHRLPLQMVTHLQVDGDLQLQSINFIGGQPLRPQGPPMMPPYPGPGHCHQQLNSLPTMEGPPTFNPPVPYFGRLQGGLTARRTIIIKGYVPPTGKSFAINFKVGSSGDIALHINPRMGNGTVVRNSLLNGSWGSEEKKITHNPFGPGQFFDLSIRCGLDRFKVYANGQHLFDFAHRLSAFQRVDTLEIQGDVTLSYVQI",glycan array binding signal (z-score),[1],-0.222
same,glycan array binding signal (z-score),[2],-0.227
same,glycan array binding signal (z-score),[3],-0.25
same,glycan array binding signal (z-score),[4],-0.225
same,glycan array binding signal (z-score),Man(a1-3)[Man(a1-6)]Man,-0.233
same,glycan array binding signal (z-score),[5],-0.166
same,glycan array binding signal (z-score),[6],-0.241
same,glycan array binding signal (z-score),[7],-0.205
same,glycan array binding signal (z-score),[8],-0.242
same,glycan array binding signal (z-score),[9],-0.293
same,glycan array binding signal (z-score),Man(a1-6)Man,-0.218
same,glycan array binding signal (z-score),Man(b1-4)GlcNAc,-0.217
same,glycan array binding signal (z-score),MurNAc(b1-4)GlcNAc,-0.259
same,glycan array binding signal (z-score),Neu5Ac(a2-3)Gal,-0.229
same,glycan array binding signal (z-score),[10],-0.232
same,glycan array binding signal (z-score),[11],-0.208
same,glycan array binding signal (z-score),[12],-0.206
same,glycan array binding signal (z-score),[13],-0.211
same,glycan array binding signal (z-score),[14],-0.21
same,glycan array binding signal (z-score),[15],-0.225
same,glycan array binding signal (z-score),[16],-0.23
same,glycan array binding signal (z-score),[17],-0.249
same,glycan array binding signal (z-score),[18],-0.194
same,glycan array binding signal (z-score),[19],0.107
same,glycan array binding signal (z-score),[20],-0.205
same,glycan array binding signal (z-score),[21],-0.238
same,glycan array binding signal (z-score),[22],-0.335
same,glycan array binding signal (z-score),[23],-0.336
same,glycan array binding signal (z-score),[24],-0.226
same,glycan array binding signal (z-score),[25],-0.23
same,glycan array binding signal (z-score),[26],-0.228
same,glycan array binding signal (z-score),[27],-0.234
same,glycan array binding signal (z-score),[28],-0.323
same,glycan array binding signal (z-score),[29],-0.204
same,glycan array binding signal (z-score),[30],-0.211
same,glycan array binding signal (z-score),[31],-0.25
same,glycan array binding signal (z-score),[32],-0.287
